Out of some 310,000 compounds screened, about 2,200 (0.71%) showed an effect of 50% or more. Effects have a minus sign here. The list shows a part of the results.

The test deals with human ether-à-go-go-related gene (hERG) potassium channel (human, UniProt Q12809). As to the kind of experiment: primary screen, population patch clamp on CHO cells stably expressing hERG.
Sequence of human ether-à-go-go-related gene (hERG) potassium channel (Q12809 whole entry, looked up): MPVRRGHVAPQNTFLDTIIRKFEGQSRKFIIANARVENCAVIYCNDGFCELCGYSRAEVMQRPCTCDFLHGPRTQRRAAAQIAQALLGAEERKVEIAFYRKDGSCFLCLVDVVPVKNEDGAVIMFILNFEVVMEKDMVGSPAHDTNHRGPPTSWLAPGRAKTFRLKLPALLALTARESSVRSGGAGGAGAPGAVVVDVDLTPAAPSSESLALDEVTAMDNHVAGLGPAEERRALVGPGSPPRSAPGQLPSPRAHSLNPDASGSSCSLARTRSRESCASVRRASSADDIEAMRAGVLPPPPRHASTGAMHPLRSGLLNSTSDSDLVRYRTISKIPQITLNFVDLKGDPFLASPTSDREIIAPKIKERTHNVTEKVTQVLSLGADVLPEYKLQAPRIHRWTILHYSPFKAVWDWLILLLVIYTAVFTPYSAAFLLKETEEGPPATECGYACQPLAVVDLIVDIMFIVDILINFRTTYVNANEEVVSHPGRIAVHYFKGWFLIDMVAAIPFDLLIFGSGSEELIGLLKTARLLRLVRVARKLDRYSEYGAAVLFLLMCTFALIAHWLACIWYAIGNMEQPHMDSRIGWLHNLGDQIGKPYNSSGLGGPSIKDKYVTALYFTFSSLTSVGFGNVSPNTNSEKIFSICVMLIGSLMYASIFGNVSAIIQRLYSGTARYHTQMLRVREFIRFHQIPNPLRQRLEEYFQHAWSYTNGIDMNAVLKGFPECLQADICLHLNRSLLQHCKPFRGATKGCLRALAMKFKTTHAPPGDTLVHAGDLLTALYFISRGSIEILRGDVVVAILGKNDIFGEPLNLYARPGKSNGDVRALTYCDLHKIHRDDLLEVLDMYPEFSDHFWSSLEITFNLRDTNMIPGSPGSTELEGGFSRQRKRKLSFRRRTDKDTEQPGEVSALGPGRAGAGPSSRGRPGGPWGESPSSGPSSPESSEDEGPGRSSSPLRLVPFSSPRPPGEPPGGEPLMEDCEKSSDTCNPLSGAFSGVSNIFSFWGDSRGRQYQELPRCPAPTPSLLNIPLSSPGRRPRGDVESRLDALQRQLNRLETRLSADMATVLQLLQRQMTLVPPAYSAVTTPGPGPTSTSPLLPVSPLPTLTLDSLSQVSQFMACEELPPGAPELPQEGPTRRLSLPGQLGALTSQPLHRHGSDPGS
Consider `O=C1/C(=C/c2ccccn2)SC(=S)N1NS(=O)(=O)c1ccccc1`, for which the “hERG current change (%, negative = inhibition) at 1uM” value turned out to be 4.71%.
Take `COc1ccccc1NC(=O)C1=C(C)Nc2nc(-c3ccc(N(C)C)cc3)nn2C1c1ccncc1` (centres unmarked): the “hERG current change (%, negative = inhibition) at 1uM” value is listed as -4.17%.
The value for `CCCC(=O)NC(=S)Nc1ccccc1OC` was 7.87%; that for `CCCCOc1ccc(Cl)cc1Nc1nc(NCCO)nc(N2CCCC2)n1` was 9.02%.
Next, `CCn1cc(C(=O)N2CCN(c3ccccc3)CC2)c(=O)c2cc(S(=O)(=O)N3CCOCC3)ccc21`: 21.2%; `CC(c1ccccc1)C1CC(=O)N(c2ccc(C(=O)O)cc2)C1=O` (centres unmarked): 15.7%.
With `CCN(C(=O)c1ccc2c(SCC(=O)O)c3c(nc2c1)CCC3)c1cc(Cl)ccc1OC`, the “hERG current change (%, negative = inhibition) at 1uM” value turned out to be 7.27%.
Regarding `CCc1ccccc1NCc1cc(=O)oc2cc(C)ccc12`, the “hERG current change (%, negative = inhibition) at 1uM” value is 17.5%.
Next, `Cc1nc(SCC(=O)NNC(=O)c2cccs2)[nH]c(=O)c1C`: 8.36%; `COC(=O)CCNS(=O)(=O)c1ccc2nsnc2c1`: 2.08%; `CC(C)c1ccccc1NC(=O)COC(=O)COc1ccccc1[N+](=O)[O-]`: 13.6%.
The value for `CC(C)CC(c1nnnn1C1CCCC1)N1CCN(C(=O)c2ccco2)CC1.Cl` (centres unmarked) was -6.57%; that for `CNc1ccc(Cl)cc1C(N)=O` was 26.5%; that for `CC(=O)c1ccc(NC(=O)c2cc(C)nc3ccccc23)cc1` was 13.5%.
The value for `COc1ccc(NC(=O)c2ccccc2NC(=O)CSc2ccc(Cl)cc2)cc1` was -1.47%.
In the case of `O=C(COC(=O)c1cccc(Br)c1)NCCC1=CCCCC1`, the “hERG current change (%, negative = inhibition) at 1uM” value was 12.7%.
Regarding `Cc1nc(SCc2ccc(F)cc2)c2oc3ccccc3c2n1`, the “hERG current change (%, negative = inhibition) at 1uM” value turned out to be 11.8%.
The value for `COC(=O)c1nnn(-c2ccsc2C(=O)OC)c1C(=O)OC` was 0.538%; that for `COc1ccc(C(=O)CC(=O)C(=O)Nc2cc(OC)ccc2OC)cc1` was 4.24%; that for `Cc1ccc(/C=C/c2nc3sc(C(=O)O)c(C)c3c(=O)[nH]2)cc1[N+](=O)[O-]` was 19.5%.
The value for `COc1cc2nc(SCc3ccc(F)cc3)n(Cc3cccs3)c(=N)c2cc1OC` was 0.591%; that for `O=C(Nc1ccc(Cc2ccncc2)cc1)c1cccc([N+](=O)[O-])c1` was 6.84%; that for `O=C(NCCc1ccc2c(c1)OCCO2)c1ccccn1` was 11.4%.
As for `CC(=O)Nc1ccc(NC(=O)C(OC(=O)c2ccccc2)C(OC(=O)c2ccccc2)C(=O)O)cc1` (centres unmarked), the “hERG current change (%, negative = inhibition) at 1uM” value was 13.7%.
The value for `CC(=O)c1cccc(NC(=O)C(C)OC(=O)c2cccc(S(=O)(=O)N3CCN(C)CC3)c2)c1` (centres unmarked) was -5.66%; that for `O=C(NNc1cc(Cl)ccc1Cl)c1cccnc1Cl` was 17.5%.
Next, `CCOC(=O)CCCN1CC(O)=C(c2nc3ccccc3s2)C1=N`: 12.2%; `COc1ccccc1-c1sc2ccccc2c1-c1ccc2c(c1)OCO2`: 13.9%; `Cc1cccc(C)c1NC(=S)NCCc1ccccn1`: 14%.
Next, `COc1cc(OC)nc(NC(=O)CN2CCN(c3ccc(F)cc3)CC2)n1`: -8.52%.
As for `COc1ccccc1NC(=O)C1=C(C)Nc2nc(-c3cccs3)nn2C1c1cccnc1` (centres unmarked), the “hERG current change (%, negative = inhibition) at 1uM” value worked out at 3.14%.
On to `S=C(NCc1ccccc1)Nc1ccncc1`, for which the “hERG current change (%, negative = inhibition) at 1uM” value turned out to be 5.25%.
Next, `CCN(c1ccc(OC)cc1)S(=O)(=O)c1ccc2c(c1)CCN2C(=O)CCC(=O)O`: 10.6%; `Cc1cc(C)cc(NC(=O)C(NCC2CCCO2)c2ccccc2)c1.O=C(O)C(=O)O` (centres unmarked): 12.3%; `COc1ccc2[nH]c(=O)c(CNc3ccccc3C)cc2c1`: 9.37%.
Regarding `COc1ccc2c(c1)c(C(=O)N/N=C/c1ccc(OC)c(OC)c1)c(C)n2C`, the “hERG current change (%, negative = inhibition) at 1uM” value is -2.8%.
In the case of `Cc1nnc(NC(=O)CSc2ncn(-c3ccccc3)n2)s1`, the “hERG current change (%, negative = inhibition) at 1uM” value is reported as 9.65%.
The value for `Cl.Cn1sccc1=O` was 16%.
With `CCCCCc1nnc(NC(=O)OCCC)s1`, the “hERG current change (%, negative = inhibition) at 1uM” value is -10.6%.
Next, `CCOC(=O)c1cnc(SCC(=O)Nc2sc(C)c(C)c2C#N)nc1N`: 17.2%; `Nc1cc([N+](=O)[O-])ccc1Nc1ccccc1`: 2.49%.
Regarding `O=C(COc1ccccc1)Nn1cnc2ccccc21`, the “hERG current change (%, negative = inhibition) at 1uM” value is 3.85%.
As for `COc1ccccc1N1CCN(S(=O)(=O)c2cc3c(cc2C)NC(=O)CO3)CC1`, the “hERG current change (%, negative = inhibition) at 1uM” value is listed as 2.65%.
The value for `CC(=O)Nc1ccc(S(=O)(=O)N2CCSC2c2ccccc2)cc1` (centres unmarked) was 18.2%; that for `COCC(C)NCc1ccc(OC)c(Br)c1.O=C(O)C(=O)O` (centres unmarked) was 11%.
Next, `CCOC(=O)c1[nH]c(C)c(CN(CCc2ccccc2)S(C)(=O)=O)c1C`: 4.5%; `Cc1noc(C)c1CSCC(=O)N(C)CC(=O)Nc1ccc(Cl)cc1`: 6.74%.
Next, `Cc1nn(S(=O)(=O)c2cccs2)c(C)c1Sc1ccc([N+](=O)[O-])cc1`: 12.1%; `Cc1sc2c3ccsc3ccc2[n+]1C.[I-]`: 18%.
For the compound `CCc1ccccc1NC(=O)C1c2ccccc2Oc2ccccc21`, the “hERG current change (%, negative = inhibition) at 1uM” value is 11.8%.
`COC(=O)c1cc(OC)c(OC)cc1NC(=O)Cc1ccccc1[N+](=O)[O-]`: the “hERG current change (%, negative = inhibition) at 1uM” value is 2.29%.
With `Cc1cccc(NC(=O)CSc2ncnc3nc[nH]c23)c1C`, the “hERG current change (%, negative = inhibition) at 1uM” value is -1.67%.
Next, `CC(=O)NCCn1c(SCc2ccc(C)cc2)nc2ccccc2c1=O`: -3.02%; `CC1CCCN(C(=O)COC(=O)CNC(=O)c2ccc(Br)cc2)C1` (centres unmarked): 5.36%; `COc1ccc(-c2ccc(S(=O)(=O)N3CCCC3)cc2)cc1`: 12.2%.
Next, `NS(=O)(=O)c1ccc(NC(=S)NNC(=O)c2ccc(Br)o2)cc1`: 14.1%.
The value for `CC1=C(C(=O)Nc2ccccn2)C(c2ccc(Br)cc2)NC(=S)N1` (centres unmarked) was 8.66%.
On to `COc1cccc(NC(=O)CSc2nnc(Cn3c(=O)sc4ccccc43)n2C)c1`, for which the “hERG current change (%, negative = inhibition) at 1uM” value stood at 6.44%.
The value for `Cc1ccc(N=Cc2c(O)n(-c3ccc(C)cc3)c(=O)[nH]c2=O)cc1` was 12.2%; that for `COC(=O)Nc1ccc(OCC(=O)N2CCOCC2)cc1` was -3.91%; that for `CC(=O)O/N=C(/c1nonc1N)N(C)C` was 8.58%.
Take `CC(CCc1ccccc1)NCC(O)c1ccc(O)c(C(N)=O)c1.Cl` (centres unmarked): the “hERG current change (%, negative = inhibition) at 1uM” value is -6.91%.
Next, `Nc1ccc(C(=O)OCC(=O)N2CCc3ccccc3C2)cc1[N+](=O)[O-]`: 13.9%; `CN1CCN(c2ccccc2NC(=O)COc2ccc(Br)cc2)CC1`: -20.3%.
Consider `CCCCN(C(=O)c1ccc(N(C)S(=O)(=O)c2ccc(C)cc2)cc1)c1c(N)n(CCC)c(=O)[nH]c1=O`, for which the “hERG current change (%, negative = inhibition) at 1uM” value came out at 17.9%.
Next, `O=C1CC(c2cccc(Br)c2)C2=C(CCCC2=O)N1` (centres unmarked): 12.7%.
The value for `CN1C2CCC1CC(NS(=O)(=O)c1ccc(C#N)cc1)C2` (centres unmarked) was 4.41%.
Next, `O=C(CN1CCN(C(=S)NC2CCCC2)CC1)Nc1ccc(Oc2ccccc2)cc1`: -3.39%; `CCn1c(SCC(=O)Nc2oc(-c3ccccc3)c(-c3ccccc3)c2C#N)nnc1-c1ccco1`: 13.2%.
In the case of `CCOC(=O)C1=C(C)NC(=O)NC1/C(C)=C/c1ccccc1` (centres unmarked), the “hERG current change (%, negative = inhibition) at 1uM” value is reported as -7.48%.
The value for `COc1ccc(-c2ccc(/C=C3/C(=N)N4C=CSC4=NC3=O)o2)c([N+](=O)[O-])c1` was 6.71%; that for `Cc1occc1C(=O)N1CCN(C(=O)C2CCCO2)CC1` (centres unmarked) was -17.5%; that for `Cc1ccc(O)c(NC(=S)NC(=O)CC(C)C)c1` was 2.82%.
The value for `Cc1cccc(-c2nc3c(c(SCC(=O)N4CCCC4)n2)COC(C)(C)C3)c1` was 6.51%.
The value for `O=C(c1ccc(COc2ccc(Cl)cc2Cl)o1)N1CCCC1` was 9.08%.
For the compound `O=C(NNc1ccc([N+](=O)[O-])cc1)C1CC2CCCC(C1)C2=O` (centres unmarked), the “hERG current change (%, negative = inhibition) at 1uM” value is listed as -4.1%.
For the compound `CCOP(=O)(OCC)C(CC)N1CCOCC1` (centres unmarked), the “hERG current change (%, negative = inhibition) at 1uM” value is on record as 14.5%.
Regarding `COCCCn1c(SCC(=O)Nc2oc(C)c3c(C)n[nH]c(=O)c23)nc2sc3c(c2c1=O)CCC3`, the “hERG current change (%, negative = inhibition) at 1uM” value came to 2.88%.
The value for `CC(C)/C=C1\CCc2c([nH]c3ccccc23)C1=O` was 4.46%; that for `COc1ccc(-n2cnnc2SCc2ncc(-c3ccccc3)o2)cc1` was -5.42%.
With `Cc1cc(C)cc(-n2c(C)cc(/C=C3\C(=O)NC(=O)N(C)C3=O)c2C)c1`, the “hERG current change (%, negative = inhibition) at 1uM” value was -4.29%.
`Cc1cccc(C(=O)N2CCCC(N3CCN(c4ccc(F)cc4)CC3)C2)n1` (centres unmarked): the “hERG current change (%, negative = inhibition) at 1uM” value came out at 20.8%.
As for `O=C(COC(=O)C1CC2C=CC1C2)Nc1cccc(S(=O)(=O)N2CCCCC2)c1` (centres unmarked), the “hERG current change (%, negative = inhibition) at 1uM” value turned out to be 12%.
Next, `COc1ccc(C2=NN(C(N)=S)C(c3ccco3)C2)cc1` (centres unmarked): 12.4%.
In the case of `CCOC(=O)c1ccc(NC(=O)C2CCN(S(=O)(=O)c3ccccc3)CC2)cc1`, the “hERG current change (%, negative = inhibition) at 1uM” value was -2.48%.
Next, `Cc1[nH]n(-c2ccccc2)c(=O)c1N=Nc1ccccc1C(=O)N1CCOCC1`: -0.376%; `CC(C)C(=O)Nc1cccc(-c2nc3ncccc3o2)c1`: 15.9%; `CN(Cc1ccccc1)C(=O)c1nc2ccccn2c1CN1CCCC1c1nccs1` (centres unmarked): 0.748%.
The value for `CN(C(=O)c1ccc2c(c1)CCN2S(C)(=O)=O)c1ccccc1` was 8.99%.
